Experimental data from PMC4336329 (PLoS ONE, 2015).
Out of some 310,000 compounds screened, about 14,000 (4.5%) showed an effect of 50% or more. Effects have a minus sign here. The list shows a part of the results.

Each compound was assayed against human ether-à-go-go-related gene (hERG) potassium channel (human, UniProt Q12809) (assay: primary screen, population patch clamp on CHO cells stably expressing hERG).
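Note: peak tail current of the secondary pulse compared with the same well before compound.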

Chain of human ether-à-go-go-related gene (hERG) potassium channel (Q12809 whole entry, looked up): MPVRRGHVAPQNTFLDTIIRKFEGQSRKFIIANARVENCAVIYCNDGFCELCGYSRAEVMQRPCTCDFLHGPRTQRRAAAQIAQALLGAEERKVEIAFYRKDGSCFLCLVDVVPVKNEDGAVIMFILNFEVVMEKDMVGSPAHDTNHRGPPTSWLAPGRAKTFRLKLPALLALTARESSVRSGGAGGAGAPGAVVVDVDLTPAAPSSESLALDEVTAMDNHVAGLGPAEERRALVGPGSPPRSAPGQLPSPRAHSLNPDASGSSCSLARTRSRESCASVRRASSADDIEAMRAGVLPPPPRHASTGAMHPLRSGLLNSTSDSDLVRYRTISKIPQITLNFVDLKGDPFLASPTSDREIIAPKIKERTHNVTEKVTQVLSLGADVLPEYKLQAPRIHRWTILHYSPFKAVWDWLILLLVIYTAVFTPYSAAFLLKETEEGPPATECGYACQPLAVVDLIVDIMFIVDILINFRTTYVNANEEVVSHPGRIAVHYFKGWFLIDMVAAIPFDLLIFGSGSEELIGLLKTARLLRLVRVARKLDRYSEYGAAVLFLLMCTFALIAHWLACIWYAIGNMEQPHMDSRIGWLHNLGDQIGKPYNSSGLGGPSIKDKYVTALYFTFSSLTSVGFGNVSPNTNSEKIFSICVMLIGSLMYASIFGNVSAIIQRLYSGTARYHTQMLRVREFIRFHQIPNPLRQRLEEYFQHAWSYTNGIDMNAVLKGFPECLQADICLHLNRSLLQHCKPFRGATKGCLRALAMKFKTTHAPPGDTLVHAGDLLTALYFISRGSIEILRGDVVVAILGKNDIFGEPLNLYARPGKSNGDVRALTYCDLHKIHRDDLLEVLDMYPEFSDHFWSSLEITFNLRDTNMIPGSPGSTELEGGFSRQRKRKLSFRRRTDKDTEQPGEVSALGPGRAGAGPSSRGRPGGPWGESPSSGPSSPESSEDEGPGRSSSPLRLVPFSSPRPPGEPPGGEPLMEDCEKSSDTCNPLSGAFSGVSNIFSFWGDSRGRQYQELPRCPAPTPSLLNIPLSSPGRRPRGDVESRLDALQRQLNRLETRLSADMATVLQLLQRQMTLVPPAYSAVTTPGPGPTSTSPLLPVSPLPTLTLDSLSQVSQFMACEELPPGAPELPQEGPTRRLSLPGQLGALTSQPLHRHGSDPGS

| Compound | hERG current change (%, negative = inhibition) at 10uM |
| --- | --- |
| O=C1CN(C(=O)COc2ccc(F)cc2Cl)c2ccccc2N1 | -19.5% |
| O=C(CNC(=O)c1ccccc1F)NCc1cccnc1 | 25.1% |
| COc1cc2[nH]c3c(=O)n(CCN(C(C)C)C(C)C)cnc3c2cc1OC | -13.3% |
| COC(=O)c1ccc(C(=O)N(Cc2ccccc2)c2ccccc2)cc1 | 5.54% |
| Cc1onc(-c2ccccc2Cl)c1C(=O)NCc1ccc2c(c1)cc(C)n2C | 7.32% |
| CN(C)c1nc(N)nc(CSc2nc3c(c(=O)n(C)c(=O)n3C)n2Cc2ccccc2F)n1 | -3.89% |
| CCOC(=O)c1ccccc1OCc1cc(/C=N/n2cncn2)ccc1OC | -1.16% |
| Cc1ccc(NC(=O)C2CCCN2S(=O)(=O)c2cccc3cccnc23)cc1F (stereo not drawn) | -23.4% |
| COc1ccc(N(C(=O)c2ccncc2)S(=O)(=O)c2ccccc2)cc1 | -17.3% |
| COc1ccc(OC)c(CNC(=O)COc2cc(=O)n(C)c3ccccc23)c1 | 4.7% |
| CCCCCN1C(=O)Cn2c(nc3ccccc3c2=O)C1C (stereo not drawn) | -20.5% |
| CCN(CC)c1ccc(NC(=O)c2cc3c(OC)cccc3[nH]2)cc1 | 8.54% |
| COc1cc2c(cc1OC)CN(CC(=O)Nc1ccccc1C(=O)NCc1ccccc1)CC2 | -22.5% |
| CC(CN1CCN(C)CC1)OC(=O)c1cccc(F)c1.Cl (stereo not drawn) | 4.26% |
| CNC(=S)N1CCN(c2nc(-c3ccc(F)cc3)cs2)CC1 | 12.8% |
| O=C1c2ccccc2S(=O)(=O)c2cc(N3CCN(c4ccccc4)CC3)ccc21 | 10.8% |
| O=C(COC(=O)C1CCC(=O)N1)Nc1ccc(Cl)cc1Cl (stereo not drawn) | 8.01% |
| CCC(NC(=O)NNC(=O)c1ccncc1)(C(F)(F)F)C(F)(F)F | 1.98% |
| O=C(c1cn(-c2ccccc2)nc1-c1cccnc1)N1CCN(S(=O)(=O)c2cccc(F)c2)CC1 | -13.6% |
| CCCN(CC(=O)Nc1ccc(F)c(F)c1F)CC(=O)Nc1c(Cl)cccc1Cl | -14.3% |
| CC(C)(C)C(=O)NC1(C(F)(F)F)NC(=O)N(Cc2ccccc2)C1=O (stereo not drawn) | 18.4% |
| O=C(CN(Cc1ccc(F)cc1)C(=O)CCC(=O)Nc1ccccn1)NCCc1ccccc1 | -15.7% |

| Compound | hERG current change (%, negative = inhibition) at 10uM |
| --- | --- |
| CCOc1ccc(C(=O)N2CCC3(CC2)NCCc2[nH]cnc23)cc1 | -70.1% |
| Cc1cc(C(=O)CN2C(=O)NC(c3ccccc3)(c3ccccc3)C2=O)c(C)n1Cc1ccco1 | 2.91% |
| O=[N+]([O-])c1ccc(/C=N/n2c(COc3ccccc3)n[nH]c2=S)cc1 | 3.84% |
| CCCCC(=O)O | 15.2% |
| Br.CCCCn1c(=N)n(CC(=O)O)c2ccccc21 | 22.4% |
| C/C(=N\NC(=O)c1ccccc1O)c1c(O)n(C2CCCCC2)c(=O)[nH]c1=O | 15.5% |
| Cc1ccc(C(=O)N2CCC(n3nccc3NC(=O)C3CCOC3)CC2)cc1 (stereo not drawn) | 10.7% |
| CCN1C(=O)c2ccccc2Sc2ccc(C(=O)NCCC(C)C)cc21 | -7.94% |
| Cc1nnc(SC/C=C/c2ccccc2)n(N)c1=O | -1.15% |
| CN(C)c1cccc2c1c(NC(=O)c1ccc(F)cc1)nn2C | -13.5% |
| Oc1cccc(/C=N/Nc2cc(N3CCOCC3)nc(N3CCOCC3)n2)c1 | -27.8% |
| O=C(O)CC1COc2ccccc2N1S(=O)(=O)c1ccc(Br)cc1 (stereo not drawn) | 11.1% |
| CC(C)CSC1=NSC2=NC(=O)/C(=C\c3ccccc3)C(=N)N12 | 21.1% |
| COc1cccc(CN2CCNC(=O)C2CC(=O)NCc2cn3cccc(C)c3n2)c1OC (stereo not drawn) | 17.1% |
| CC(C)NC(=O)c1onc(CSc2ccc(Cl)cc2)c1C(=O)O | 8.78% |
| Cc1cc(C)cc(OCC(=O)Nc2ccccc2C(=O)NCc2ccco2)c1 | 0.803% |
| Cn1c(=O)c(=O)n(C)c2cc(S(=O)(=O)N3CCCC3C(=O)NCc3ccco3)ccc21 (stereo not drawn) | 10.4% |
| CCOC(=O)c1nn(-c2ccc(C)c(C)c2)cc1O | 2.44% |
| Cn1c(=S)[nH]c(=O)c2ncc(=O)[nH]c21 | 6.35% |
| Cc1ccc(SCC(=O)NC2CC2)cc1 | 13.3% |
| Cc1ccc(NC(=O)C2CCCN2S(=O)(=O)c2ccc3c(c2)CCC(=O)N3)cc1Cl (stereo not drawn) | -37.3% |
| Nc1c(C(=O)NCc2ccco2)c2nc3ccccc3nc2n1CCN1CCOCC1 | -4.63% |

| Compound | hERG current change (%, negative = inhibition) at 10uM |
| --- | --- |
| CCOC(=O)N1CCN(Cc2nc3c(c(=O)n(C)c(=O)n3C)n2Cc2ccccc2C)CC1 | -11.3% |
| CC(=O)c1ccc(C(=O)N(C)C2CCCN(Cc3ccccc3F)C2)s1 (stereo not drawn) | -19.9% |
| Cc1nc2ccc(C(=O)OCc3ccccc3Br)cc2nc1C | 2.3% |
| COc1ccc(CNC(=O)[C@H](Cc2ccccc2)NC(=O)C2CCN(C(=O)[C@H](C)N)CC2)cc1 | -2.78% |
| COc1ccc(C(C(=O)NC(C)(C)C)N(C(=O)CCC(=O)Nc2cc(C)on2)c2ccccc2F)cc1 (stereo not drawn) | 11.9% |
| C#CCOc1cc(C2C3=C(COC3=O)Nc3cc4c(cc32)OCO4)ccc1OC (stereo not drawn) | 3.21% |
| Cc1c(NC(=O)/C(C#N)=C/c2ccc(-c3cccc(Cl)c3)o2)c(=O)n(-c2ccccc2)n1C | -24.5% |
| Cc1cc(CSc2ccccc2)ccc1NC(=O)COc1ccccc1C | 6.53% |
| Cc1c(O)c(S(=O)c2ccccc2)c(=O)n(-c2ccccc2)c1-c1ccccc1 (stereo not drawn) | -4.73% |
| CC(=O)c1cccc(NC2c3ccccc3C(=O)N2Cc2ccc3c(c2)OCO3)c1 (stereo not drawn) | -11.4% |
| Br.CCCCCCCCOC(=O)c1c(CSC(=N)N)n(C)c2cc(Br)c(OC(C)=O)cc12 | -22.8% |
| O=C(COc1ccccc1)Nc1cccc(-c2nnc(-c3ccccc3)o2)c1 | -0.811% |
| O=C(N/N=C\c1ccccn1)C1COc2cc3ccccc3cc2O1 (stereo not drawn) | -11.2% |
| COc1ccccc1C(=O)NCCC(=O)N(C)Cc1ccc(C)o1 | -5.85% |
| N#Cc1cc2ccccc2nc1N | 3.52% |
| C/C(=N\NC(=O)c1ccccc1)c1c(O)n(Cc2ccccc2)c(=O)[nH]c1=O | -4.51% |
| COc1ccc(Cl)cc1NC(=O)CSc1nnc(CN2CCOCC2)n1-c1ccc(Cl)cc1 | -46.6% |
| OC(CNCC(c1ccc(Cl)cc1Cl)c1c[nH]c2ccccc12)c1ccccc1 (stereo not drawn) | 13.3% |
| COc1cc(SC)ccc1C(=O)N1CCCc2ccccc21 | -1.77% |
| CC(=O)c1ccc(NC(=O)CC(NCCC2=CCCCC2)C(=O)O)cc1 (stereo not drawn) | 4.35% |
| O=C(c1ccc(Cl)cc1)c1coc2ccc(O)cc12 | -10.8% |
| Cc1ccc(S(=O)(=O)N2CCN(C(=O)CN3CCOCC3)C2)cc1 | 1.23% |

| Compound | hERG current change (%, negative = inhibition) at 10uM |
| --- | --- |
| O=C(O)C1CC=CCC1C(=O)NCCc1csc(-c2ccccc2)n1 (stereo not drawn) | -19% |
| COc1ccccc1CCCNC(=O)C1CCC(=O)N(CCc2cccc(F)c2)C1 (stereo not drawn) | -19.1% |
| CCCCn1c(O)c(C(C)=NCCCN(CC)CC)c(=O)[nH]c1=O | -18.3% |
| CCOC(=O)c1sc(NC(=S)NC(=O)c2ccc(OC)cc2)nc1C | 20.4% |
| Cc1ccc(-c2nnn(CC(=O)N(Cc3ccccc3F)C(C(=O)NC3CCCC3)c3ccncc3)n2)o1 (stereo not drawn) | -15.4% |
| COc1ccc(N(CC(=O)NCCSCc2ccccc2Cl)S(C)(=O)=O)cc1Cl | -0.89% |
| COC(=O)C(C(=O)OC)C(C(C)C)C(C(=O)OC)C(=O)OC | -7.51% |
| Cc1cccc(NC(=O)c2ccc(Cl)c(NC(=O)c3ccncc3)c2)c1C | -30.4% |
| Cc1cccc2cc(CN(CC3CCCO3)C(=O)c3cccnc3)c3nnnn3c12 (stereo not drawn) | -5.82% |
| O=C(COC(=O)c1cccc(O)c1)c1ccccc1 | -0.561% |
| CSc1ccccc1OCc1cc(C(=O)N(C)CC2COCCO2)no1 (stereo not drawn) | 3.36% |
| COC(=O)c1ccc(OCC(=O)c2cccc(OC)c2)cc1 | 7.76% |
| NC(=O)C1CCN(C(=O)CSc2nc(O)cc(=O)[nH]2)CC1 | -1.38% |
| CC(C)c1cccc(C(C)C)c1O | 8.51% |
| O=C(Nc1nnc(Cc2c[nH]c3ccccc23)s1)c1ccc(Cl)cc1Cl | 13.4% |
| CC(C)Oc1cc(NC(=O)CS(=O)(=O)CC(=O)N(C)C)c(Cl)cc1Cl | -0.644% |
| CN(C)c1nc2c(c(=O)[nH]c(=O)n2C)n1CCCc1ccccc1 | -19.1% |
| Cc1ccc(C2=CC(=O)C[C@H](c3ccc(Cl)cc3)C2)cc1 | 8.09% |
| COc1ccccc1-c1nnc(NC(=O)C(C)C)s1 | 9.09% |
| Cc1ccc(NC(=O)C2Cc3ccccc3C(=O)O2)cc1 (stereo not drawn) | 13% |
| N#Cc1nc(COc2ccccc2Cl)oc1NCc1cccnc1 | -51.2% |
